# Measured values: patent publication US5583155A, “6-amino-1,2-benzopyrones useful for treatment of viral diseases” (Octamer, Inc., priority 1994, dated 1996)
# Columns and labels:
# [1] = tested on: HIV (activated by HSV IE-110) in U937 cells; assay: HIV growth activated by HSV IE110 in U937 cells (syncytium-forming assay); settings: 3 mM, FIGS. 3 and 4
# Description: FIG. 3 illustrates the effect of the drug 6-ABP on HIV activation by cotransfection of HIV with HSV-IE 110 in macrophages (U937 cells). The rationale for taking this approach and the syncytium-forming assay are described in Example 3 with results shown in Table 2. For the purpose of determining the ability of 6-ABP to inhibit HIV growth activation, the duplicate cells cultures were used. In experiments 1 and 2, U937 cells were transfected with HSV IE-110 gene and, CMV IE gene and infected HIV. The viral HIV growth is shown to reach up to and above 2,500 SFU/ml in 4 days for U937 cells cotransfected with IE-110 and to about 1200 to 1400 SFU/ml between 4-8 days for U937 cotransfected with CMV IE. In experiment 3, U937 cells transfected with HSV IE-110 and infected with HIV were treated with 3 mM of 6-ABP. […]
# In one series of experiments, the effect of HSV IE110 and CMV IE2 gene expression on HIV replication using the syncytium assay formation on MT2 cells that defines HIV growth was examined. […] HIV titers are expressed as syncytia forming units/ml.
# Transfection was 24 hours before HIV infection. […] The SFU assay consists of the method of Harada described in Science, 299:563, (1985) modified according to Virology, 167:299 (1988) for direct microscopic quantitation of syncytia.
# [2] = tested on: HIV (activated by CMV IE) in U937 cells; assay: HIV growth activated by CMV IE in U937 cells; assay type: cell-based, HIV-1; settings: FIG. 3
smiles,measurement,setting,value
"Nc1ccc2oc(=O)ccc2c1 [6-ABP, 6-amino-1,2-benzopyrone]",effect of drug addition post infection,[1],as effective as when cells were pre-treated
same,effect on CMV-IE-activation of HIV,[2],CMV-IE-activation is also inhibited by the drug
